Measured values: ChEMBL document CHEMBL4888484, “Replenishing the malaria drug discovery pipeline: Screening and hit evaluation of the MMV Hit Generation Library 1 (HGL1) against asexual blood stage Plasmodium falciparum ,using a nano luciferase reporter read-out” (2022)
The campaign covered roughly 4,800 compounds. About 410 (8.5%) showed an effect of 50% or more. Some of the results follow.

System: Plasmodium falciparum
Assay: Confirmatory screen in NF54 pLDH assay, in single point, at 2uM, 72h
Assay type: functional, Erythrocyte
Details: timepoint 72 hour

| SMILES | % Inhibition [%] |
| --- | --- |
| COc1nccc(NC(=O)c2ccccc2Cl)n1 | -20 |
| COc1ccccc1CN1COc2cc3c(cc2C1)OCO3 | 52 |
| COc1ccc(-c2cc3c(N4CCN(C)CC4)nccn3n2)cc1OC | 11 |
| COc1ncccc1CNC(=O)[C@@H]1CCN(c2cc(C)cc(C)c2)C1=O | 7 |
| COc1ccc(-c2cc3n(n2)C[C@@](C)(C(=O)NCc2ccccc2OC)N(c2cccc(OC)c2)C3=O)cc1 | 23 |
| O=C1COc2ccc(S(=O)(=O)N[C@H]3COc4ccccc43)cc2N1 | -1 |
| CCNS(=O)(=O)c1cc(C)ccc1C | 8 |
| OC1CCCC1N1CCC(c2ccccc2)CC1 (centres undefined) | 0 |
| CCCn1cc2c(C(=O)Nc3ccc(Br)cc3F)cc(=O)[nH]c2n1 | -13 |
| COc1ccc(NC(=O)C2C3NC(=O)N(c4ccccc4)C2(C)Oc2ccc(Cl)cc23)cc1 (centres undefined) | -13 |
| CC(C)c1cc(C(=O)N2CC3CC4CC3C2C4O)n[nH]1 (centres undefined) | 13 |
| CC1(C)CC(=O)C2(Cc3ccccc3N3CCN(Cc4ccccc4)C[C@H]32)C(=O)C1 | 12 |
| COc1ccc2c(c1)/C(=C1/SC(C(C)=O)=C(c3ccccc3)S1)C(=S)C(C)(C)N2C(=O)Nc1ccc(Cl)c(Cl)c1 | -18 |
| Cc1ccnc(-c2ccc(NC(=O)[C@@H]3CCN(c4ccc(Cl)cc4)C3=O)cc2)n1 | -22 |
| COCCNc1cncc(Br)c1 | -7 |
| COc1cccc(C2=Nc3cccnc3N(CC(=O)Nc3ccc(C)c(Cl)c3)C(=O)C2)c1 | -3 |
| CC(C)Cn1nc2ccc(S(=O)(=O)N3CCOCC3)cn2c1=O | 10 |
| CN(Cc1cc(C(F)(F)F)ccc1Cl)[C@H]1CCc2nn(C)c(=O)n2CC1 | -2 |
| O=C(Cc1ccccc1)Nc1cccc2c1C(=O)N(c1ccccc1)C2=O | -4 |
| O=C1CCCN1c1ccc(-c2csc(C3CC3)n2)cc1 | -12 |
| Cc1c(N=C2NC3(CCCCC3)Cc3ccccc32)c(=O)n(C)n1-c1ccccc1 | 7 |
| Cc1cccc2sc(N3CCC[C@H](CNS(N)(=O)=O)C3)nc12 | 9 |
| COc1ccc(NC(=O)c2nc(Nc3ccccc3)c3ccccc3n2)cc1 | 7 |
| O=C1NCCCOc2cccc(c2)[C@H]2c3ccc(cc3CCN2C(=O)CCN2CCOCC2)Oc2ccc(O)c1c2 | 50 |
| Cc1ccc(C(=O)NCc2ccc(-c3nc4ccccc4s3)cc2)cc1 | -2 |
| Cc1cc(NC(=O)Cn2cnc3nc(N(C)Cc4ccccc4)sc3c2=O)no1 | -6 |

| SMILES | % Inhibition [%] |
| --- | --- |
| O=C(c1cn(CC2CC2)nn1)N1CCCC2(CC2)C1 | 5 |
| Cc1ccc(C(=O)Nc2nnc(-c3ccoc3C)o2)cc1C | 8 |
| CC(C)c1ccc(NC(=O)CCCC(=O)O)cc1 | 11 |
| CCOc1ccc(CN2CC[C@H](Nc3ncccn3)[C@@H](O)C2)cc1Cl | -18 |
| C=CCNC(=O)N(Cc1ccccn1)c1ccc(Oc2cccc(C)c2C)nc1 | 3 |
| COCCN(Cc1nc(C(=O)NC(C)C)cs1)C(=O)Nc1ccc(C(C)C)cc1 | 7 |
| CCOC(=O)N1CCc2c(nc(-c3ccc(C)cc3)n(CC(=O)Nc3ccc(C(C)C)cc3)c2=O)C1 | -21 |
| CN(Cc1ccc(-c2ccccc2)cc1)c1cc([C@H]2C[C@@H](N)C2)nc(N)n1 | 54 |
| CN(Cc1nnc2n1CCC2)C(=O)Cc1cccs1 | 9 |
| COc1cc(OC)c(S(=O)(=O)NC(C)C)cc1S(=O)(=O)NC(C)C | 9 |
| CN(C)CCNC(=O)Nc1ccn(-c2ncccc2Cl)n1 | 7 |
| O=C(COc1ccccc1)N1CC(n2cnnc2C2CC2)C1 | -17 |
| O=C1CN(CC(=O)N2CCCC2CC2CC3CCC2C3)C(=O)N1 (centres undefined) | -13 |
| COc1ncnc2c1CN(C(=O)c1cc3c(s1)CC[C@H](C)C3)CC2 | 13 |
| O=C(NCc1ccccc1)c1cnn2c3c(cnc12)CCCCCC3 | 8 |
| C#CCN(CCCc1ccccc1C)[C@H]1CCS(=O)(=O)C1 | -23 |
| O=C(Nc1ccc(OC2CCC2)c(F)c1)N1CC[C@H](O)C1 | 8 |
| O=C(Cc1ccccc1Cl)N1CCc2[nH]nc(C(=O)N3CCN(c4ccc(F)cc4)CC3)c2C1 | -1 |
| Cc1ccc(N(CC#N)S(=O)(=O)c2ccc3nnc(C)n3c2)cc1 | -15 |
| CCC(CC)C(=O)Nc1cccc(Cl)c1C | 4 |
| O=S1(=O)NCCCCN1Cc1ccccc1 | 2 |
| COC(=O)CN(CCC(F)(F)F)c1nc(C)nc(N(C)C)n1 | -10 |
| O=C([C@@H]1CCCN1c1ncc(C(F)(F)F)cc1Cl)N1Cc2ccccc2C1 | -18 |
| COc1ccc(NC(=O)[C@@H](C)C2CCOCC2)cc1 | -5 |
| COc1c(C)cc(C(=O)[C@H]2CCCN(c3cc(N)ncn3)C2)cc1C | 24 |
| CCOc1cccc(Cn2cc(Br)ccc2=O)n1 | 3 |

| SMILES | % Inhibition [%] |
| --- | --- |
| Cc1nn(Cc2ccccc2)c(=O)n1-c1ccc(OCc2ccccc2)cc1 | -14 |
| CN(Cc1ccccc1)C(=O)C[C@H]1CCN(C(=O)c2cnccn2)C1 | 10 |
| O=C(C[C@H]1CCN(C(=O)c2ccc(F)cc2)C1)NC1CC1 | -8 |
| Cn1cc(N)c(Oc2ccc3c(c2)OCO3)n1 | 6 |
| CN1C[C@@H](C(=O)Nc2csc(N3CCCCC3)n2)CC1=O | -2 |
| CC1CN(C)C(C)c2c1oc1ccc(N)cc21 (centres undefined) | -17 |
| C[C@@H]1CN(c2ccc(N)cn2)C[C@H](C)O1 | -12 |
| CN(C(=O)Cn1cnc2nc(N3CCC(C(=O)NC4CC4)CC3)sc2c1=O)c1ccccc1 | -13 |
| COc1ccc(OCC(=O)Nc2ccc(N3CCn4c(nc5cc(Cl)ccc54)C3)cc2OC)cc1 | -5 |
| Cc1ccc(C(=O)NCCn2cnc3ccccc3c2=O)cn1 | -7 |
| Cc1cc(C)nc(NCCC[C@H]2CCCCO2)n1 | -15 |
| CCN(CC)CCn1c2ccccc2n2cc(-c3ccc(Br)cc3)nc12 | 47 |
| COCCOc1ccc2c(n1)CCN(C(=O)Nc1ccccc1C)C2 | 0 |
| CCOC(=O)c1ncc(Cl)c(C#N)c1Cl | -5 |
| CCOc1ccc(-c2ccnc3c(C(=O)NCc4ccc5c(c4)OCO5)cnn23)cc1 | 5 |
| Cc1ccn(Cc2nc(N)nc(N(C)C)n2)c(=O)c1C#N | 4 |
| CCCc1nn(CC(N)=O)c(CCC)c1CC | -9 |
| C[C@H](Oc1ccccc1)C(=O)Nc1cccc(-c2nnco2)c1 | -18 |
| CC1=C[C@@H](CNCc2cccnc2)[C@H](C(C)C)C[C@H]1Cc1nc2cccnc2[nH]1 | 18 |
| O=C(NCc1cccnc1Oc1ccccc1)c1cccnc1 | 10 |
| CCn1cc(C#N)c(=O)c2cc(F)c(N3CCN(Cc4ccccc4)CC3)cc21 | 78 |
| COC(=O)C1(C)CC2(C)CC(C)(C1)C(=O)N(C)C2=O (centres undefined) | -20 |
| O=C(CN1CCC(c2ccnn2CCO)CC1)N(Cc1ccccc1)C1CC1 | -7 |
| CC(=O)c1ccc(N2CC[S+]([O-])CC2)nc1 | 12 |
| Cc1nc(CNc2cnc3cc(Cl)c(Cl)cc3n2)no1 | 8 |
| O=C(Nc1ccc(N2CCn3c(nc4cc(Cl)ccc43)C2)cc1)NC1CCCCC1 | -13 |

| SMILES | % Inhibition [%] |
| --- | --- |
| Cc1noc([C@H]2CCCN(C(=O)c3cc4c(s3)CCC4)C2)n1 | -5 |
| Cc1nc(-c2ccc3[nH]c(=O)[nH]c3c2)cs1 | 9 |
| COc1ccc(CCc2n[nH]c(NC(=O)CCc3c[nH]c4ccccc34)n2)cc1OC | -4 |
| COc1cccc([C@H]2CC(=O)Nc3nc(N4CCCCC4)sc32)c1 | 16 |
| CCOc1ccc(-c2cc3c(=O)n(CCC(=O)N4CCCC4)ccn3n2)cc1 | 7 |
| Cc1nn(C)c(C)c1CNc1ccc2c(c1)CCC(=O)N2 | -13 |
| CCN1C(=O)COc2ccc(-c3csc(NC(=O)[C@@H]4CCCO4)n3)cc21 | 9 |
| O=S(=O)(NC1CC(c2ccc(F)c(Cl)c2)C1)C1CC1 (centres undefined) | 7 |
| Cn1cc(CNc2ccc3c[nH]nc3c2)cn1 | 4 |
| Cc1ccc(-n2ccc3nc(N4CCc5ccccc5C4)ncc3c2=O)cc1C | -13 |
| COc1ccc(C)cc1NC(=O)c1nn(-c2ccccc2)c2ccccc2c1=O | -18 |
| Cc1ccc(OCC(=O)Nc2cc(C)nn2-c2nc3c(cnn3-c3ccc(C)c(C)c3)c(=O)[nH]2)cc1 | 57 |
| OC1CCC(Nc2cncc(-n3cccn3)n2)CC1 (centres undefined) | 0 |
| O=C(Nc1ccccc1-n1ccnc1)c1cnccn1 | -7 |
| Cc1ccc(/N=C(\N)C(Cl)(Cl)Cl)c(C)c1 | -2 |
| COc1ccc(-c2cn3cc(C)nc3n2C)cc1 | 0 |
| c1ccc(C2CCC(N3CCN(Cc4ccco4)CC3)CC2)cc1 (centres undefined) | 6 |
| O=C(CCC(=O)N1CCCCCC1)NCc1cccs1 | 3 |
| Cc1ccc(/C=C(\C(=O)NC[C@H]2CCCO2)n2ccccc2=O)cc1 | 12 |
| Cc1ccc(S(=O)(=O)N2CC(C)N(C(=O)N3CCOCC3)C2C)cc1 (centres undefined) | 14 |
| CCn1c(C)c(C)c2cc(C(=O)Nc3cccc(S(=O)(=O)N4CCOCC4)c3)ccc21 | 4 |
| C[C@H](NC(=O)c1cocn1)c1ccccc1NC(=O)c1cocn1 | -7 |
| CCC(C)(CC)[C@@](O)(C#CC[N+]1(Cc2ccccc2)CCCCC1)c1ccccc1 | 22 |
| COc1cc(CNCCc2ccccc2F)ccc1OCc1nnnn1-c1ccc(C)cc1 | 11 |
| Cc1ccc(Cn2cnc(NC(=O)CCn3c(=O)cc(C(F)F)c4cn(C)nc43)n2)cc1 | 1 |
| CCCN(Cc1c(C)nn(-c2ccccc2)c1N1CCN(CC)CC1)S(=O)(=O)c1ccc(C)cc1 | -27 |
